Results published in the supplement of paper PMC3334620.
Whole data set: some 33,000 sequences, median “E-score (-0.5 to 0.5)” near -0.035, cut for the highest 2% near 0.34. Some of the results follow.

Biological target: T1, Mot3 (UniProt P54785)
T1 sequence: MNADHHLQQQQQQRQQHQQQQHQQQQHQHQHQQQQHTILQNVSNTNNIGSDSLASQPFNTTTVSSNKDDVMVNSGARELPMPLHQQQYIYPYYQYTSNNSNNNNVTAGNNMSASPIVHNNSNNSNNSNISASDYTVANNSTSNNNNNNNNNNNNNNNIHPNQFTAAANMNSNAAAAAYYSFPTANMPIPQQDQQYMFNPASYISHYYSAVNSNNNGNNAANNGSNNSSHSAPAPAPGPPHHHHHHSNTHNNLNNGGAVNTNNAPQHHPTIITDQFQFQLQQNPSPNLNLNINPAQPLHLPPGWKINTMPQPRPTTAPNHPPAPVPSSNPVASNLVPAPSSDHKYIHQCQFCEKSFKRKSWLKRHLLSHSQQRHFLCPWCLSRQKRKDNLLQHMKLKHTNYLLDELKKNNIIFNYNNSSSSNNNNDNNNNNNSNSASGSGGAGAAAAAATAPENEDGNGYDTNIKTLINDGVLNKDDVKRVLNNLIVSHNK
Test: PBM E-score (8-mer binding enrichment) (E-score (-0.5 to 0.5)); higher = stronger / more preferred TF binding; most listed sequences are background and not binding sites
Conditions: protein concentration: 200 nM; construct: GST-full length
Method in brief: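 Bound GST-tagged yeast transcription factors, applied at about 100-200 nM to double-stranded universal all-10-mer Agilent arrays, were detected with fluorescent anti-GST. Scans were normalised with masliner. A modified Wilcoxon-Mann-Whitney statistic, the E-score, was assigned to each ungapped eight-base word pooled with its reverse complement by the Universal PBM Analysis Suite.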

In order of falling “PBM E-score” value:
1. ATAGGAAC  0.456
2. ATGCCTAC  0.424
3. AGTAGGAA  0.403
4. CCGAGGCA  0.308
5. CACGTTTA  0.3
6. GGTAAGTA  0.295
7. AATGTACA  0.292
8. ACGTACAT  0.286
9. TCTACGCA  0.275
10. TACGTTAA  0.252
11. ATGCGTTA  0.252
12. CGCTTGTA  0.235
13. CAGTTTAC  0.215
14. AGGCATAT  0.207
15. ACAAGACA  0.207
16. AAGTCACG  0.205
17. AACTTGCC  0.204
18. CATTTACG  0.201
19. AAAAGCAA  0.195
20. CTATTGTA  0.183
21. ACGCCAGG  0.18
22. CGTTTAAA  0.174
23. AATTGTAG  0.17
24. CTAGTTCC  0.168
25. AATAGTGG  0.164
26. TCACTAAA  0.157
27. ACCTGCAA  0.15
28. ATAATTTA  0.144
29. GCACTTAA  0.133
30. ATACCTTG  0.126
31. TACTCCTA  0.122
32. CCTAGTAA  0.117
33. CCTGACTA  0.116
34. GGTATACA  0.115
35. GGTCTTTA  0.115
36. TCCGCGAA  0.113
37. GTCATAGA  0.11
38. AATACTCT  0.107
39. AAGACAGG  0.103
40. AATAGCAA  0.0944
41. ATATCTTA  0.0935
42. GAACTCGA  0.0884
43. AGTGTCCA  0.0882
44. CGTAGTAG  0.0742
45. AGAAAAGA  0.0735
46. AGAATCTC  0.073
47. AATGCACG  0.0706
48. CTCCAAAC  0.0667
49. CATTTGCG  0.0635
50. ATAACCAA  0.0625
51. ACTGCAGG  0.0605
52. GTGAACCA  0.0599
53. AAAAATCT  0.0523
54. AAACGGAT  0.0493
55. CTTTCAAA  0.048
56. AACTTACT  0.046
57. GTTTGTCA  0.0429
58. ACGATTGA  0.0344
59. CAGAATCA  0.0337
60. AGAGTTAA  0.0318
61. AGCACAGG  0.0314
62. ATGCGAAC  0.0292
63. ACACTGGG  0.0273
64. CAAAATCC  0.0251
65. ATTCATGG  0.025
66. TCTAAGCA  0.0236
67. GCTTCTTA  0.0229
68. CCGTCTAC  0.0226
69. CACGCCTC  0.0202
70. CAATTCTA  0.0194
71. AACGAGGA  0.00748
72. GAAGACAC  0.0023
73. ACCTGACT  0.002
74. GGTGCACC  -0.00493
75. ATTTCGAG  -0.00637
76. CTTAATCC  -0.00888
77. GTGCTATA  -0.00959
78. GTTGGAAA  -0.0146
79. ACCTCGAT  -0.0183
80. CGACTAAA  -0.0183
81. GCTCATTA  -0.0195
82. AGTAGGTC  -0.0219
83. GGATGTGA  -0.0241
84. CTTTATGA  -0.0242
85. AGAATTAG  -0.0254
86. ACGCAGTC  -0.0289
87. GTTCTTAA  -0.031
88. GACAGTTA  -0.0316
89. TGAAGCAA  -0.0324
90. AACTATAG  -0.0332
91. ATTGGTAG  -0.037
92. CTTCAAGC  -0.0397
93. AGAGTCGG  -0.0456
94. ACCTAGGA  -0.0478
95. AGATCACG  -0.051
96. GGAATGCC  -0.0541
97. AGTTTAGC  -0.0648
98. CTCACCTA  -0.0658
99. CCAGGTGC  -0.0667
100. ACGTCCAG  -0.0677
101. CAGCTAAC  -0.0689
102. CCGATGTC  -0.075
103. GCCGCTAA  -0.0753
104. AGTGCGAA  -0.0759
105. ATCACGAA  -0.0774
106. AAACAGAG  -0.0785
107. ATAATCTC  -0.0787
108. ACCGATAC  -0.0799
109. ATTACGGC  -0.0851
110. ATCGTTAG  -0.0878
111. CTAGCCAA  -0.0892
112. CGAAGTTC  -0.0913
113. AAAAGCGG  -0.0916
114. CTTTCTGC  -0.0935
115. GCCGAATA  -0.0956
116. GCCGTAGA  -0.096
117. AGCTTAGG  -0.0963
118. TCATCTCA  -0.1
119. CAGAGTTA  -0.102
120. CACCAATG  -0.102
121. ATCCCGAC  -0.104
122. CGTACCCA  -0.117
123. GAGCCCTC  -0.118
124. ATAATCCC  -0.119
125. CATCATCC  -0.119
126. GGTGTGCA  -0.119
127. CGTAGCGC  -0.12
128. GAACCCGC  -0.121
129. GGCTACGA  -0.125
130. CCGTGAAG  -0.126
131. ATACGGAG  -0.127
132. AAAGGGAG  -0.128
133. AATCGAGA  -0.129
134. AACCTGCT  -0.132
135. ATTGGTGG  -0.139
136. CGACCGTA  -0.141
137. CCGCGAAG  -0.141
138. CCATGCGC  -0.143
139. AATTGGAC  -0.145
140. AGAACTGC  -0.146
141. AGAAGACT  -0.149
142. CGGGGGAA  -0.149
143. CCGCGCTC  -0.153
144. ACCTAGAC  -0.153
145. AGCCACAA  -0.154
146. CGACGCCA  -0.163
147. GCAGTCCC  -0.164
148. AGCTGTAC  -0.165
149. GCCGGCAA  -0.177
150. ATCCCTCA  -0.18
151. GACCTCGC  -0.181
152. CCACCCGA  -0.197
153. GAATCGCA  -0.2
154. AACCCGTG  -0.211
155. CATCGGTA  -0.221
156. ATTGCTCG  -0.228
157. GAGAGTCC  -0.229
158. CCGATGGA  -0.232
159. AGGGGCAG  -0.234
160. CCGGCCCG  -0.248
161. CTCGACCA  -0.258
162. GGGGTGAA  -0.261
163. GCAACCGA  -0.266
164. CGCCAAGA  -0.271
165. GGGTTCCA  -0.273
166. AGGTCCCA  -0.294
167. CAGGTCCG  -0.302
168. GGAATTCC  -0.315
169. CGGTCGGC  -0.32
170. AGGACCCA  -0.323
171. CCGGTCCA  -0.328
172. GAGTCACC  -0.34
